These are yes or no findings as the source states them, for the method shown. Some entries that bind do so weakly or less than the wild type. For some of these results: Sequences can lack the tags named with a protein.
Assays:
Assay in all cases: ectopic mistargeting to mitochondria (Tom20-GBP); mEGFP-, GFP- or mECitrine-tagged protein 1 mistargeted to mitochondria by Tom20 tagged with GFP-binding protein (GBP) nanobody in live S. pombe cells; recruitment of tdTomato-, mCherry- or RFP-tagged protein 2 to mitochondria seen by confocal microscopy
[1] = molecular target: T1, mECitrine-Rng10(751–1038) (S. pombe) (UniProt Q9P6L9)
T1 sequence: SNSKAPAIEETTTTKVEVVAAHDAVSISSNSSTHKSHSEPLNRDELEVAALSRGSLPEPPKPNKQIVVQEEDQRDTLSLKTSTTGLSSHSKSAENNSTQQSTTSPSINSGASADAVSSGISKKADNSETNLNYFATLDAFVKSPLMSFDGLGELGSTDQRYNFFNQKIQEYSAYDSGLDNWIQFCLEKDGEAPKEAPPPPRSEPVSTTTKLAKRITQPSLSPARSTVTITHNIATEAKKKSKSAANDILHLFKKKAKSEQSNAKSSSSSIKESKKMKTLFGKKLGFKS

[2] = molecular target: T2, Rng10(1–750)-mEGFP (S. pombe) (UniProt Q9P6L9)
T2 sequence: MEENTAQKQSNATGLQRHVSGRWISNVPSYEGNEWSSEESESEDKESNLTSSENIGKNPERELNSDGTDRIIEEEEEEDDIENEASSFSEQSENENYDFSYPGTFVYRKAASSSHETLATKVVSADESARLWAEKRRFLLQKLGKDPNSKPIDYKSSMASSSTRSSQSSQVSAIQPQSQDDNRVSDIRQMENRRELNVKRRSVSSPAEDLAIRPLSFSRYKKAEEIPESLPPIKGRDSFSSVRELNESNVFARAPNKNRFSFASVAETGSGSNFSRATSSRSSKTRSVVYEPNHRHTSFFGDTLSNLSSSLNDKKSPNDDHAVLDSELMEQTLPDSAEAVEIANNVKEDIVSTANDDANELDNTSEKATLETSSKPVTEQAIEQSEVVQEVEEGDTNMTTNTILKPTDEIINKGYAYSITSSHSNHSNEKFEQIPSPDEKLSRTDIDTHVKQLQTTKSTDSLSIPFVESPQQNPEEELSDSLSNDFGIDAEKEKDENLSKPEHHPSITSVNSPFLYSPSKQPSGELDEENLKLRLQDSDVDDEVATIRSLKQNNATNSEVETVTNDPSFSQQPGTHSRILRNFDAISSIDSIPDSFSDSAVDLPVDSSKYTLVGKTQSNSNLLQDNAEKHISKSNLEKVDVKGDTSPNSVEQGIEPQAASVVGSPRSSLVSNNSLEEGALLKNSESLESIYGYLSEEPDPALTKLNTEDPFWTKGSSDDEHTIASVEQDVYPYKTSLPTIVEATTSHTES

[3] = molecular target: T3, Rng10-(1–200)-mEGFP (S. pombe) (UniProt Q9P6L9)
T3 sequence: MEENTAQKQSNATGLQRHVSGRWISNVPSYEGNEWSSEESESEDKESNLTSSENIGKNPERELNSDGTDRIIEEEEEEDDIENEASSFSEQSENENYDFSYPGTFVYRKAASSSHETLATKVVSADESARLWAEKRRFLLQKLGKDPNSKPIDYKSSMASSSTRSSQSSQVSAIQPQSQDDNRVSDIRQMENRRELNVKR

Rng10-mEGFP (S. pombe) = molecular target: T4, Rng10-mEGFP (S. pombe) (UniProt Q9P6L9)
T4 sequence: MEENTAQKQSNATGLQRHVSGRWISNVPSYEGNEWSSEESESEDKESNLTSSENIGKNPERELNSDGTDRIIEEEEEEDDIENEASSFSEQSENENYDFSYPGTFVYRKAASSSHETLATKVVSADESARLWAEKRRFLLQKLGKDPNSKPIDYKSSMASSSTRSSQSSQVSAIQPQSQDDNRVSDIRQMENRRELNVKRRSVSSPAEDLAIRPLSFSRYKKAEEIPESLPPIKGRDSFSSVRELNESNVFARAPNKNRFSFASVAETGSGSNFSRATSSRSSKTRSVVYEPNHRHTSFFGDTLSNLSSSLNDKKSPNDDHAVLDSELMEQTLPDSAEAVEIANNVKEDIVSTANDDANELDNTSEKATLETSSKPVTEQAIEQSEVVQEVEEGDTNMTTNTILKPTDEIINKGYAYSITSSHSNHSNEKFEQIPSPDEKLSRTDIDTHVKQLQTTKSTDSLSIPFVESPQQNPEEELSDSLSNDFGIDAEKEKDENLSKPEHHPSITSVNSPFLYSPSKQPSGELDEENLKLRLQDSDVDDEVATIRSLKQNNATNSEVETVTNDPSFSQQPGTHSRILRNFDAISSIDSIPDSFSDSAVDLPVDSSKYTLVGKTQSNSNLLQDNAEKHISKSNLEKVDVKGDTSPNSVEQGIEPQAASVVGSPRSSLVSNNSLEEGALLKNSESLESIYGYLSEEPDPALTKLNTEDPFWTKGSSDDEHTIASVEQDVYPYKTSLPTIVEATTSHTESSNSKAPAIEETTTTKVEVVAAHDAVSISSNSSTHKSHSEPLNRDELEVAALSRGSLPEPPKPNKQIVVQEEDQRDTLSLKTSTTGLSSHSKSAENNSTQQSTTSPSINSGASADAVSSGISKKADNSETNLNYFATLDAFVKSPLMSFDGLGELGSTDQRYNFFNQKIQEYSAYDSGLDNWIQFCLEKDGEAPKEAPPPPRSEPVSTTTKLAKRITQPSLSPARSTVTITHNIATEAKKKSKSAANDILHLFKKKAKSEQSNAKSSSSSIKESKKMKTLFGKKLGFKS

binding [1]: binds | binding [2]: binds | binding [3]: no binding | binding (Rng10-mEGFP (S. pombe)): binds
B1: Ync13-tdTomato (protein, UniProt O13683 1-1237)
chain: MNCRRKPLPLHSNEVQAAESISKDELYSWTLKNVLILFLVQYRASTPSALQTSSFSTPVEKKTNGAFSGSLFSAKEKKDNPKYPKDFIKYLSLALESISMGKEPEYQDQLIRGCFAAFYNNINKSHISKQLKDSRKIEDMFLIFASSVSSELTKRLGTAYDSNLADRITASFIELCKRVTLKGQLASPSSEFVSHLDMYHSKLLNKSEILSTKRVNRGQDQFDLSSFPLLKVFSSVFKVAYSKALLDAEKLFPSIDEAAIAEDIGILIEDLESDACKFSHSVVDFSNYKSYSTWKARELQTLEQHRKIMLSLIPLSSSPNHPIQPIGFPASRKTPTYVPPIARPYFRQLLSLCLEYRLQVTDPVEVKQINTFIRECSIYWRILPSTRCALSMDFAREHLQKGLITSADVLTHFGELHKSLKEWEITYWPKIDVSIFSSALFGIRNALAQLLKKSLLDLLHEKKADFHRWLNIMSICVEDGKVINQDLSPKSEISSVALALQEHCKVIFDEEFDLSKLPSSNFLDEIILASNRISVRIKFLERNCSECIYGVLSLPQIFINIVLPNYIRAALVVAKEYLREKANADINDLTKDMLEIYSDLKQMIHVLQEYHNEEYRIGSFEGFFQPFIDSWLDNVEASAEQWFLRSLEKDNFDENSSEGQYSSSIVDLFHAFHQAFRTLEGFEWEDDLANARFFTRFFRVIYIVLSKYTQWTTQKFFEEANKQDDTSEVQNDNSSSWFSKARNILSGSNEVLPFRFSPTMCILLNNIHFAMHAYEELEQKIDLQRLIEALDVAESTKRHKISATNYLYTIKVVRGEGLHPDGAGKIRTSYIVLTDNKGRRIGKTRPIHSMNPRWDDTFEVKTKDALMITANLWSKGKFNDHEIFGRSSFTLSPKIYGDYLPREEWFDLNPHGELLLRIEMEGEREHIGFYVGRTYHDLERAQREMIKFIVNKMEPVINQNLSTATLKKLLSANTWMDLDKTMTSVTSLLNRTGFSSKSSENVKKEGELTDVQIEAAIYELLDYFDLNFSIIAKHLTKDVFVTVMSYVWDEVVCTTEELLLPPVSVKPINRKPLSPAQMAIVYRWLQFLKDYFYANGEGVKLPVLETDHYKELLRVQEYYDKPTDFLLQECDKIASQLYLSSRMVNNEPVESLPRHSRIKFANKEIYRSGTIRKVHIQTNESELERNERIILRILRMRADSKRFLSKHFQRKGRLLMADAMRNGYVMPLGHLKKLDSR
